Measurements taken from publication PMC7955072 (Nature Communications, 2021).
“And” between values parts separate entries of the source, which are not always exact repeats. Equal values may be shown once. This continues a long series; more values of the same kind are listed elsewhere.

Experiments:
[1] = test system: protein translation in rabbit reticulocyte lysate; assay: Rescue of RM-A-inhibited in vitro translation by C-terminal truncated ScIleRS or its variants; conditions: replicates I-III
[2] = test system: protein translation in rabbit reticulocyte lysate; assay: Rescue of RM-A-inhibited in vitro translation by C-terminal truncated human IleRS or its variants; conditions: replicates I-III

**Q.** What does the source list for CCCC[C@@]1(OC(=O)CCC(=O)O)CC[C@]2(CC[C@H](C)[C@@H](C/C=C(C)/C=C/[C@H](O)[C@@H](C)/C=C/C(=O)O)O2)O[C@H]1/C=C/C(C)=C/C(=O)O [RM-A, reveromycin A]?
**A.** Luciferase luminescence, 200 nM RM-A ([1]; 1 μM C-terminal truncated ScIleRS Wild-type): 78179.8 and 76352.9 and 75473.4; Luciferase luminescence, 200 nM RM-A ([1]; 1 μM ScIleRS W449A): 71731.8 and 72721.8 and 84326; Luciferase luminescence, 200 nM RM-A ([1]; 3 μM LeuRS (control)): 154.893 and 36.04; Luciferase luminescence, 200 nM RM-A ([1]; No enzyme): 63.694 and 118.486 and 52.672; Luciferase luminescence, 200 nM RM-A ([2]; 1 μM C-terminal truncated human IleRS Wild-type): 83295.7 and 163450 and 116055; Luciferase luminescence, 200 nM RM-A ([2]; 1 μM human IleRS R453A): 1455.34 and 289.807 and 8585.61; Luciferase luminescence, 200 nM RM-A ([2]; 1 μM human IleRS R459A): 215.606 and 54.339 and 171.532; Luciferase luminescence, 200 nM RM-A ([2]; 1 μM human IleRS R461A): 22081.7 and 40970.4 and 33727.3; Luciferase luminescence, 200 nM RM-A ([2]; 1 μM human IleRS W455A): 44.02 and 35.857 and 26.326; Luciferase luminescence, 200 nM RM-A ([2]; 1 μM human IleRS W527A): 70.431 and 17.709 and 43.876; Luciferase luminescence, 200 nM RM-A ([2]; 1 μM human IleRS Y569A): 5696.14 and 3316.79 and 2966.03; Luciferase luminescence, 200 nM RM-A ([2]; 3 μM C-terminal truncated human IleRS Wild-type): 201224 and 199022 and 204709; Luciferase luminescence, 200 nM RM-A ([2]; 3 μM human IleRS R453A): 123651 and 133594 and 140568; Luciferase luminescence, 200 nM RM-A ([2]; 3 μM human IleRS R459A): 1971 and 1393.87 and 1621.8; Luciferase luminescence, 200 nM RM-A ([2]; 3 μM human IleRS R461A): 177488 and 173104 and 175565; Luciferase luminescence, 200 nM RM-A ([2]; 3 μM human IleRS W455A): 26.49 and 178.701 and 79.582; Luciferase luminescence, 200 nM RM-A ([2]; 3 μM human IleRS W527A): 17.66 and 70.739 and 44.212; Luciferase luminescence, 200 nM RM-A ([2]; 3 μM human IleRS Y569A): 38499 and 38117 and 26032.1; Luciferase luminescence, 200 nM RM-A ([2]; No enzyme): 62.885 and 54.339 and 63.196
